Experimental data published in the supplement of paper PMC10126150.
Sequences with one replicate were seen in a single cluster, so their values are uncertain.

Test system: ATP
Test: switch fluorescence ratio, 500 uM ATP over buffer (Cy3 cluster intensity, sum of 5 cycles each) (fold (ratio)); higher = stronger signal-on switching upon ATP binding; sequences stand for … in TCGTCGGCAGCGTCAGATGTGTATAAGAGACAGTTTTTTTTTTTTTTTTTTTTTTTTT…TC
Details: aptamer strand: ATP DNA aptamer (quencher-CACCTGGGGGAGTATTGCGGAGGAAGG + anchor), 100 nM annealed; ATP concentration: 500 uM; one replicate
How it was run: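 Between each of five buffer/ATP cycles, the flow-cell was stripped with NaOH and re-annealed. Each cycle imaged Cy3-labelled switching-strand clusters, annealed to 100 nM quencher-labelled ATP aptamer on a modified Illumina MiSeq flow-cell, first in selection buffer and then after 15 min with 500 uM ATP at 22 °C. The fluorescence ratio is summed target-cycle over summed buffer-cycle Cy3 intensity per cluster, averaged per switch-domain sequence, with clusters outside 100-1000 RFU excluded.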
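Further: ATP exposure 15 min at 22 °C before imaging.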

Which switch fluorescence ratio does the source give for ATCAATCGTG here?
The switch fluorescence ratio was 1.03.

How did the switch fluorescence ratio turn out when ATCAATCTTC was run?
Its switch fluorescence ratio is 1.03.

ATCAATGCGT was tested. Which switch fluorescence ratio did it give?
Its switch fluorescence ratio is 0.944.

How did the switch fluorescence ratio turn out when ATCAATTATG was run?
Its switch fluorescence ratio is 1.04.

ATCACTCAT was tested. Which switch fluorescence ratio did it give?
Its switch fluorescence ratio is 1.01.

With ATCACTCATC as the sequence, how does the switch fluorescence ratio read?
Its switch fluorescence ratio is 1.07.

ATCAGAGCGA was tested. Which switch fluorescence ratio did it give?
Its switch fluorescence ratio is 1.06.

ATCAGATTCA was tested. Which switch fluorescence ratio did it give?
Its switch fluorescence ratio is 1.01.

ATCAGGCCAG was tested. Which switch fluorescence ratio did it give?
Its switch fluorescence ratio is 1.07.

ATCAGGTCC was tested. Which switch fluorescence ratio did it give?
The switch fluorescence ratio was 1.03.

ATCAGGTGC was tested. Which switch fluorescence ratio did it give?
Its switch fluorescence ratio is 1.59.

For ATCAGGTTCC, which switch fluorescence ratio is on record?
The switch fluorescence ratio was 1.14.

How did the switch fluorescence ratio turn out when ATCAGTCACG was run?
Its switch fluorescence ratio is 1.01.

With ATCAGTCCAC as the sequence, how does the switch fluorescence ratio read?
The switch fluorescence ratio was 1.02.

Which switch fluorescence ratio does the source give for ATCATACCGT here?
The switch fluorescence ratio was 1.02.

Which switch fluorescence ratio does the source give for ATCATCCTC here?
Its switch fluorescence ratio is 1.04.

For ATCATGAGCT, which switch fluorescence ratio is on record?
Its switch fluorescence ratio is 0.998.

How did the switch fluorescence ratio turn out when ATCATGCCGA was run?
The switch fluorescence ratio was 1.02.

Which switch fluorescence ratio does the source give for ATCATGCCGT here?
The switch fluorescence ratio was 1.03.

For ATCATGGTAC, which switch fluorescence ratio is on record?
The switch fluorescence ratio was 1.06.

For ATCATGTCGT, which switch fluorescence ratio is on record?
The switch fluorescence ratio was 1.

For ATCATGTGTG, which switch fluorescence ratio is on record?
The switch fluorescence ratio was 0.98.

How did the switch fluorescence ratio turn out when ATCATTCACT was run?
Its switch fluorescence ratio is 0.991.

Which switch fluorescence ratio does the source give for ATCCAACGG here?
The switch fluorescence ratio was 1.09.

How did the switch fluorescence ratio turn out when ATCCAAGCAG was run?
The switch fluorescence ratio was 1.19.

How did the switch fluorescence ratio turn out when ATCCAGGAAC was run?
The switch fluorescence ratio was 1.02.

With ATCCAGGGGC as the sequence, how does the switch fluorescence ratio read?
Its switch fluorescence ratio is 2.01.

For ATCCAGTTAA, which switch fluorescence ratio is on record?
The switch fluorescence ratio was 0.989.

For ATCCATCATT, which switch fluorescence ratio is on record?
The switch fluorescence ratio was 0.979.

ATCCATGGTG was tested. Which switch fluorescence ratio did it give?
The switch fluorescence ratio was 1.76.

For ATCCATGTTC, which switch fluorescence ratio is on record?
Its switch fluorescence ratio is 0.994.

ATCCATTTAT was tested. Which switch fluorescence ratio did it give?
The switch fluorescence ratio was 1.01.

ATCCATTTTT was tested. Which switch fluorescence ratio did it give?
The switch fluorescence ratio was 1.05.

With ATCCCGGGCT as the sequence, how does the switch fluorescence ratio read?
Its switch fluorescence ratio is 1.

Which switch fluorescence ratio does the source give for ATCCCGGTAG here?
The switch fluorescence ratio was 0.996.

With ATCCCTATAG as the sequence, how does the switch fluorescence ratio read?
Its switch fluorescence ratio is 1.08.

With ATCCCTATAT as the sequence, how does the switch fluorescence ratio read?
The switch fluorescence ratio was 1.04.

For ATCCCTCGGG, which switch fluorescence ratio is on record?
Its switch fluorescence ratio is 1.1.

With ATCCCTGGGT as the sequence, how does the switch fluorescence ratio read?
The switch fluorescence ratio was 0.989.

With ATCCGAAAA as the sequence, how does the switch fluorescence ratio read?
The switch fluorescence ratio was 1.06.

With ATCCGATAGG as the sequence, how does the switch fluorescence ratio read?
The switch fluorescence ratio was 1.01.

With ATCCGCGTGG as the sequence, how does the switch fluorescence ratio read?
Its switch fluorescence ratio is 1.01.

For ATCCGGGAAT, which switch fluorescence ratio is on record?
The switch fluorescence ratio was 1.01.

ATCCGGTGCG was tested. Which switch fluorescence ratio did it give?
Its switch fluorescence ratio is 1.03.

For ATCCTATTCT, which switch fluorescence ratio is on record?
Its switch fluorescence ratio is 0.998.

ATCCTGCGC was tested. Which switch fluorescence ratio did it give?
The switch fluorescence ratio was 2.09.

Which switch fluorescence ratio does the source give for ATCCTGGCCG here?
The switch fluorescence ratio was 0.997.

How did the switch fluorescence ratio turn out when ATCCTTCAAT was run?
Its switch fluorescence ratio is 1.12.

ATCCTTCTTA was tested. Which switch fluorescence ratio did it give?
Its switch fluorescence ratio is 1.02.

Which switch fluorescence ratio does the source give for ATCGAACTTA here?
The switch fluorescence ratio was 0.99.

How did the switch fluorescence ratio turn out when ATCGAAGTGT was run?
Its switch fluorescence ratio is 0.993.

Which switch fluorescence ratio does the source give for ATCGACGTTA here?
The switch fluorescence ratio was 1.03.

ATCGACTAGC was tested. Which switch fluorescence ratio did it give?
Its switch fluorescence ratio is 0.963.

With ATCGAGCATT as the sequence, how does the switch fluorescence ratio read?
Its switch fluorescence ratio is 1.06.

ATCGATTCGA was tested. Which switch fluorescence ratio did it give?
The switch fluorescence ratio was 0.996.

Which switch fluorescence ratio does the source give for ATCGCGGCGA here?
Its switch fluorescence ratio is 1.

With ATCGCTGATC as the sequence, how does the switch fluorescence ratio read?
The switch fluorescence ratio was 1.1.

ATCGCTTGTC was tested. Which switch fluorescence ratio did it give?
Its switch fluorescence ratio is 1.08.

Which switch fluorescence ratio does the source give for ATCGCTTTA here?
The switch fluorescence ratio was 1.01.

ATCGGACTGG was tested. Which switch fluorescence ratio did it give?
The switch fluorescence ratio was 1.

With ATCGGAG as the sequence, how does the switch fluorescence ratio read?
The switch fluorescence ratio was 1.05.

ATCGGCCGTG was tested. Which switch fluorescence ratio did it give?
Its switch fluorescence ratio is 0.975.

For ATCGGGAAGA, which switch fluorescence ratio is on record?
The switch fluorescence ratio was 1.05.

ATCGGGAGTT was tested. Which switch fluorescence ratio did it give?
The switch fluorescence ratio was 1.

How did the switch fluorescence ratio turn out when ATCGGGTGCT was run?
The switch fluorescence ratio was 0.998.

With ATCGGTATCT as the sequence, how does the switch fluorescence ratio read?
Its switch fluorescence ratio is 0.98.

With ATCGGTCTGG as the sequence, how does the switch fluorescence ratio read?
Its switch fluorescence ratio is 0.999.

Which switch fluorescence ratio does the source give for ATCGTACCT here?
The switch fluorescence ratio was 1.34.

Which switch fluorescence ratio does the source give for ATCGTACCTA here?
Its switch fluorescence ratio is 1.17.

ATCGTATTAA was tested. Which switch fluorescence ratio did it give?
The switch fluorescence ratio was 0.984.

ATCGTATTG was tested. Which switch fluorescence ratio did it give?
The switch fluorescence ratio was 1.01.

For ATCGTCACGA, which switch fluorescence ratio is on record?
Its switch fluorescence ratio is 0.984.

How did the switch fluorescence ratio turn out when ATCGTCACGT was run?
Its switch fluorescence ratio is 1.01.

ATCGTCATAG was tested. Which switch fluorescence ratio did it give?
Its switch fluorescence ratio is 1.01.

Which switch fluorescence ratio does the source give for ATCGTCGACC here?
Its switch fluorescence ratio is 1.01.

ATCGTCGTCT was tested. Which switch fluorescence ratio did it give?
The switch fluorescence ratio was 1.06.

For ATCGTGAGGT, which switch fluorescence ratio is on record?
Its switch fluorescence ratio is 1.04.

With ATCGTGCA as the sequence, how does the switch fluorescence ratio read?
Its switch fluorescence ratio is 1.03.

How did the switch fluorescence ratio turn out when ATCGTTAATA was run?
Its switch fluorescence ratio is 1.02.

Which switch fluorescence ratio does the source give for ATCGTTAGTT here?
The switch fluorescence ratio was 1.

ATCGTTGTAA was tested. Which switch fluorescence ratio did it give?
The switch fluorescence ratio was 0.989.

For ATCGTTTTAC, which switch fluorescence ratio is on record?
The switch fluorescence ratio was 1.06.

With ATCTAAAATC as the sequence, how does the switch fluorescence ratio read?
Its switch fluorescence ratio is 0.96.

How did the switch fluorescence ratio turn out when ATCTAAACCA was run?
The switch fluorescence ratio was 1.05.

ATCTAATTTT was tested. Which switch fluorescence ratio did it give?
The switch fluorescence ratio was 1.01.

For ATCTACTCAA, which switch fluorescence ratio is on record?
The switch fluorescence ratio was 1.14.

With ATCTAGGCA as the sequence, how does the switch fluorescence ratio read?
Its switch fluorescence ratio is 1.02.

How did the switch fluorescence ratio turn out when ATCTAGGGCG was run?
The switch fluorescence ratio was 0.991.

With ATCTAGTCGA as the sequence, how does the switch fluorescence ratio read?
Its switch fluorescence ratio is 1.01.

For ATCTCAGGTT, which switch fluorescence ratio is on record?
The switch fluorescence ratio was 1.06.

Which switch fluorescence ratio does the source give for ATCTCATCGG here?
The switch fluorescence ratio was 1.06.

For ATCTCATTCT, which switch fluorescence ratio is on record?
The switch fluorescence ratio was 1.03.

For ATCTCGAGA, which switch fluorescence ratio is on record?
The switch fluorescence ratio was 0.998.

Which switch fluorescence ratio does the source give for ATCTGAAGTA here?
The switch fluorescence ratio was 0.969.

Which switch fluorescence ratio does the source give for ATCTGAGTGG here?
The switch fluorescence ratio was 0.986.

How did the switch fluorescence ratio turn out when ATCTGCAGCT was run?
The switch fluorescence ratio was 1.11.

How did the switch fluorescence ratio turn out when ATCTGCCGCG was run?
Its switch fluorescence ratio is 1.05.

Which switch fluorescence ratio does the source give for ATCTGCTCAC here?
The switch fluorescence ratio was 1.24.

Which switch fluorescence ratio does the source give for ATCTGGGCAT here?
Its switch fluorescence ratio is 0.979.

With ATCTTATACC as the sequence, how does the switch fluorescence ratio read?
Its switch fluorescence ratio is 1.1.
